Laboratory results as given in the RNAGym collection of RNA variant scans (doi:10.1073/pnas.2313332121).
This sample is rich in variants without activity.

B1: TPR 5TU (parent)
chain: GGAUCUUCUCGAUCUAACAAAAAAGACAAAUCUGCCACAAAGCUUGAGAGCAUCUUCGGAUGCAGAGGCGGCAGCCUUCGGUGGCGCGAUAGCGCCAACGUUCUCAACUAUGACACGCAAAACGCGUGCUCCGUUGAAUGGAGUUUAUCAUG

Variants of: B1
Test: polymerase ribozyme fitness, log enrichment relative to wild type (log ratio); higher = more active; in vitro selection for triplet polymerase activity
Outline: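 Each subunit of a heterodimeric triplet polymerase ribozyme was mutagenized into a library by PCR, transcribed, and subjected to one round of in vitro selection, run in triplicate. Libraries were annealed with a biotinylated primer, the partner subunit and triplets, incubated frozen at −7 °C, and extended constructs were gel-excised, captured on streptavidin beads and recovered by RT-PCR. Input and output libraries were sequenced on Illumina, keeping genotypes with ≥10 input reads and ≥1 read per output. Fitness is log base 2 of genotype enrichment divided by wild-type enrichment, from inverse-variance-weighted replicate averages.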

Row | Variant | polymerase ribozyme fitness (log ratio)
1 | G50A G62A C87G C105U A142G | ≤ -4.2
2 | A52C G67C A89C A106G A107G | ≤ -4.2
3 | C51A C79A | ≤ -4.2
4 | C51U C72U G92C A98G U127G A138C G140A | ≤ -4.2
5 | A52C U53A | -3.29
6 | G50A G84U G141U | -3.31
7 | G50U A52C G88A A115C A147U | ≤ -4.2
8 | G50C U56G G71U G88A C108G A113G | ≤ -4.2
9 | G50A C96U | -1.47
10 | G50U C87U G152U | -4.17
11 | A52C G88A U146G A150C | ≤ -4.2
12 | A52U C54U G58C A91C G117C U148G | ≤ -4.2
13 | C51U C96A C105A C118U | -2.94
14 | G50C U56A C72A C103A | ≤ -4.2
15 | G50C A122C G143A | -4.06
16 | A52C C103A A147C | ≤ -4.2
17 | G50U C57U A73U G86U G126U | ≤ -4.2
18 | A52G G84C G92U C96A A115G C149U | ≤ -4.2
19 | A52C C96U U130A U144G A147C | -3.6
20 | G50A C69U A121U A137C | ≤ -4.2
21 | G50C C87U A150C U151A | ≤ -4.2

Row | Variant | polymerase ribozyme fitness (log ratio)
22 | A52C G68U | ≤ -4.2
23 | G50U U53G G100C C125U U130G | ≤ -4.2
24 | G50U U61C G84A A91C A107G C116G U148C | ≤ -4.2
25 | G50C G94A C116U | -3.3
26 | A52G U53A A73G C87G C93A A115U | ≤ -4.2
27 | C51A G59A U77C C105U A115G | ≤ -4.2
28 | C51G C125U U144C | -4.07
29 | A52C U61C A73G C85U U135A | ≤ -4.2
30 | C51U G84A C96A C149U | -2.56
31 | A52U A89C C96G C105G | ≤ -4.2
32 | C51A C75G G86A U90G G136C | ≤ -4.2
33 | G50A G68A | ≤ -4.2
34 | C51A G86A C118A | -3.43
35 | G50C A52C G86U C87A | ≤ -4.2
36 | A52C U53A G86A C87U C105A A106U | ≤ -4.2
37 | C51U C75U G88A C93U G94A G136C | ≤ -4.2
38 | C51U C99U | -0.392
39 | G50U C85U G88C U135G | ≤ -4.2
40 | C51G U56G C93U | -3.95
41 | A52C U55A G62C G84A C105U C114U G141A C149A | ≤ -4.2
42 | A52U C87A | ≤ -4.2

Row | Variant | polymerase ribozyme fitness (log ratio)
43 | C51U A52U G92U G100U | ≤ -4.2
44 | C51A G92U C105G | ≤ -4.2
45 | A52G C85A G140U | ≤ -4.2
46 | G50C A91U A120U A147G | ≤ -4.2
47 | G50U G59A A60G U77A G94U | ≤ -4.2
48 | A52G G62A C85U | -1.4
49 | G50U U82G C96G A107U A138U C149U | ≤ -4.2
50 | G50C G86U C116A C132A | ≤ -4.2
51 | G50C U55A G80U A89C C95A A121C A142C | ≤ -4.2
52 | G50A G68A G74A C75G C93U A107C C131G | ≤ -4.2
53 | G50C C76A G83U G92A C95A | ≤ -4.2
54 | G50U C54G U55A A60C C69U G74A G92C U102A U134C | ≤ -4.2
55 | C51A C99G U102G | ≤ -4.2
56 | A52G C54G G67C G81A C95G | -3.86
57 | C51U G58A | -1.32
58 | A52G A66C C76G | ≤ -4.2
59 | G50C G80C A138U | ≤ -4.2
60 | G50U G81C C108A A120G U130A | ≤ -4.2
61 | A52G U55A A66C C79A C85A | ≤ -4.2
62 | G50U U53G C69G G94A | ≤ -4.2
63 | G50C A64U G100U U111C G136C | ≤ -4.2

Row | Variant | polymerase ribozyme fitness (log ratio)
64 | A52G G71U | -2.58
65 | A52C G140C | ≤ -4.2
66 | G50U C69U C99U | -3.41
67 | G50U C87U C96A | -1.48
68 | G50A U56G G83U A113U | ≤ -4.2
69 | A52U C57U C76U A121U A122G U151G | ≤ -4.2
70 | A52G U56A G58A U77A C95A A137G | ≤ -4.2
71 | G50C G86U U102C A121C | ≤ -4.2
72 | G50U C72A U82C A91U A119U U144A U148A | ≤ -4.2
73 | A52U C57U A98U C108G | ≤ -4.2
74 | G50A U56G C85U A115C U144G | -2.74
75 | A52C G81A G92U C114A | ≤ -4.2
76 | G50A C93G C96U | ≤ -4.2
77 | A52U C87A U102G | ≤ -4.2
78 | G50U A60C G94A U104G A113U C118U U127C | ≤ -4.2
79 | C51U A89G C99U A150G | -3.67
80 | G50C A52G G74A C96G | ≤ -4.2
81 | A52G G100U A106U | ≤ -4.2
82 | C51G C75A C93U A113C U144C | ≤ -4.2
83 | G50C A52C U56C C96U A107U | ≤ -4.2
84 | A52G C87U C108G G117A | ≤ -4.2
